According to PubChem BioAssay AID743279 (National Center for Advancing Translational Sciences (NCATS), 2014):
Hit rate of the full screen: of about 360,000 compounds, about 17,000 (4.7%) were called active. The inconclusive results got no clear call from the source; some entries with a clear call stand among them for comparison. Rule as the data show it: active = activity change below about -50%; inconclusive = mostly about -30% to -49%; inactive = weaker than that.

Assay: qHTS for Inhibitors of Inflammasome Signaling: IL-1-beta AlphaLISA Primary Screen
Conditions: THP-1 LPS/ATP IL-1B secretion, 16 h; at 57.5 µM, stronger effect = lower value
How it was run: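 THP-1 cells pretreated 1 hr with compounds (up to 57.5 uM final), then stimulated with LPS (250 ng/mL final) plus ATP (1.25 mM final); secreted IL-1B measured by AlphaLISA after 16 hr, decreased signal indicating inhibition.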
% is scaled to controls: 0 for no effect and ±100 for the full control effect.

Row | SMILES | activity change
1 | COc1ccc(C(=O)/C=C/c2ccc(N3CCCCC3)c([N+](=O)[O-])c2)c(OC)c1 | inconclusive: -45%
2 | O=C(NCc1ccco1)/C(=C\c1ccco1)NC(=O)c1ccccc1Cl | inactive: -3.67%
3 | Cc1nc(Nc2ccc3c(c2)OCO3)c2oc3ccccc3c2n1 | inconclusive: -37.8%
4 | NC(=O)C1CCN(C(=O)CCSCc2ccc(Cl)c(Cl)c2)CC1 | inactive: -3.47%
5 | O=[N+]([O-])c1cc(S(=O)(=O)C(F)(F)F)ccc1Sc1nc2ccccc2s1 | active: -121%
6 | Cc1ccc(/C=C/C(=O)O)cc1S(=O)(=O)N(CCO)CCO | inactive: -15.2%
7 | Cc1c(N2C(=O)/C(=C\c3ccccc3O)SC2=S)c(=O)n(-c2ccccc2)n1C | inconclusive: -36.1%
8 | CC(NC(=O)c1cc(COc2c(F)cccc2F)on1)c1cnn(-c2ccccc2)c1 (stereo not drawn) | inconclusive: -30.1%
9 | CC1(C(=O)Nc2nc3ccccc3s2)CC1(Br)Br (stereo not drawn) | inactive: -2.23%
10 | Cc1nn(-c2cccc([N+](=O)[O-])c2)c(N)c1-c1ccccc1 | inconclusive: -34.6%
11 | O=C(Nc1cc(C(F)(F)F)ccc1Cl)c1ccc(NC(=O)C(F)(F)F)cc1 | inconclusive: -39%
12 | O=C(Cn1ncc2c3ccccc3n(Cc3ccccc3F)c2c1=O)NCCCN1CCCC1=O | active: -52.7%
13 | Cc1occc1C(=O)N/N=C/C=C/c1ccccc1 | inconclusive: -46.4%
14 | O=C(Nc1cccc(F)c1)NC1CCCCCCC1 | active: -92.1%
15 | CCc1cccc2c(C(=O)C(NCCCOC)c3ccccc3)c[nH]c12 (stereo not drawn) | inactive: -3.04%
16 | CCCCCC(=O)N1C[C@H](O)[C@@H](n2cc(-c3ccc(F)cc3)nn2)C[C@@H]1c1ccc(Cl)cc1 | inconclusive: -48.4%
17 | Cc1ccc(OCC(=O)Nc2ccccc2N2CCCC2)c(C)c1 | inconclusive: -37.2%
18 | O=C(CCOc1ccccc1)Nc1ccnn1C1CCN(CCc2ccccc2)CC1 | active: -51.5%
19 | CN(C)C(=O)CCC(=O)N(C)CC1CCCN(CCc2ccc(F)cc2)C1 (stereo not drawn) | inconclusive: -32.6%
20 | CC[C@]12c3[nH]c4ccc(OC)cc4c3CCN1C(=O)C(CC(=O)NCc1cccc(C(F)(F)F)c1)C[C@@H]2C(=O)N1CCN(C(=O)c2ccco2)CC1 (stereo partly drawn) | inconclusive: -44.3%
21 | Cc1cc(C)c(NC(=O)CSc2nc3ccccc3c(=O)n2CCCN2CCOCC2)c(C)c1 | inconclusive: -32.5%
22 | CC(C)CC(NC(=O)CCC(=O)OCC(=O)[C@@]1(O)CCC2[C@@H]3CCC4=CC(=O)C=C[C@]4(C)C3[C@@H](O)C[C@@]21C)C(=O)O (stereo partly drawn) | inconclusive: -41.6%
23 | O=C(Nc1ccncc1)c1cccc(S(=O)(=O)N2CCc3ccccc32)c1 | inconclusive: -38.7%
24 | O=C1CC(c2ccco2)CC(O)=C1C=Nc1cc(Cl)cc(Cl)c1 (stereo not drawn) | inconclusive: -43.4%
25 | Cc1c(C2(O)CCCCC2)[nH]c2cnccc12 | inactive: 5.59%
26 | CCc1ccccc1NC(=O)COc1ccc2c(=O)c(Oc3cc(C)ccc3C)coc2c1 | inactive: 5.31%
27 | Cc1ccc(NCCc2ccc(C)nc2)cc1 | inconclusive: -33.2%

Row | SMILES | activity change
28 | O=C(NCCC1CCCCN1S(=O)(=O)c1ccccc1)C(=O)Nc1ccc(F)cc1 (stereo not drawn) | inconclusive: -43.4%
29 | CCn1c(=O)c(=O)[nH]c2c(=O)oc3ccc(S(=O)(=O)Nc4ccccc4)cc3c21 | inactive: -7.08%
30 | O=C(NCc1ccccc1)C(c1ccncc1)N(C(=O)c1ccccn1)c1ccccc1 (stereo not drawn) | inactive: -6.46%
31 | COc1ccc(CC(N)c2csc(NC(=O)C(c3ccccc3)c3ccccc3)n2)cc1 (stereo not drawn) | active: -51.9%
32 | COc1ccc(CNC(=O)C[C@H]2C[C@H](C(=O)N3CCOCC3)[C@@]3(CCC4CCCC4)c4[nH]c5cc(-c6ccco6)ccc5c4CCN3C2=O)cc1OC | inconclusive: -41%
33 | Cn1c(CN2CCCCC2)nc2cc(NS(=O)(=O)c3ccc(F)cc3)ccc21 | inactive: -1.52%
34 | Cc1nn(-c2ccccc2)c(N2CCCC2)c1/C=N/NC(=S)Nc1ccccc1F | inactive: 0%
35 | O=C(NCc1ccco1)c1ccccc1SCC(=O)N1CCCC1 | inactive: 1.21%
36 | CCn1cc(C(=O)O)c(=O)c2cc(F)c(N3CCN(C(=S)NC(=O)c4c(OC)cccc4OC)CC3)cc21 | inconclusive: -35.3%
37 | Clc1ccc(CNc2ccccn2)cc1 | inconclusive: -39.8%
38 | COc1ccc2oc(-c3ccccc3)c(C(N)=O)c2c1 | inconclusive: -37.9%
39 | COc1ccc(C(=O)Nc2cc(S(=O)(=O)N3CCCC3)ccc2Cl)cc1 | inconclusive: -33.1%
40 | O=C(NCC1CCCO1)C(=O)NCC(c1ccco1)N1CCN(c2ccccc2)CC1 (stereo not drawn) | inactive: 2.8%
41 | COc1ccc2c(-c3ccccc3)cc(SCC(=O)NC(N)=O)nc2c1 | inactive: 17.4%
42 | CC(C)Cc1cc(C(=O)Nc2cc(Br)ccc2O)no1 | inconclusive: -40.8%
43 | COc1ccc(NC(=O)COC(=O)c2ccc3ccccc3n2)c(OC)c1 | inactive: 3.83%
44 | COC(=O)[C@@]12C[C@@H](CC(=O)NCCC(C)C)C(=O)N(Cc3ccccc3)C1=CCC(C)(C)C2 | inconclusive: -34.5%
45 | O=C(N/N=C/c1c(Cl)[nH]c2ccccc12)c1ccc2c(c1)OCCO2 | active: -56.9%
46 | O=C(C(=Cc1ccccc1)CN1CCCCC1)c1ccccc1 | active: -104%
47 | CCc1sc(C(=O)Nc2ccc(NC(C)=O)cc2)cc1C | inconclusive: -41.4%
48 | CCCN(CCC)S(=O)(=O)c1ccc2c(c1)CCCN2C(C)=O | inactive: 24.4%
49 | CC(=O)O[C@]1(C(C)=O)CCC2C3C=C(C)C4=CC(=O)CC[C@]4(C)C3CC[C@@]21C (stereo partly drawn) | inconclusive: -32.9%
50 | CCOC(=O)C1(Cc2ccccc2)CCN(Cc2cccn2-c2nccs2)CC1 | inconclusive: -36.9%
51 | CCCCn1nc(NC(=O)c2cccs2)c2cc3ccccc3nc21 | active: -93.9%
52 | CCC(CC)C(=O)N(C)c1c(C)nc2c(OCc3ccc(C(F)(F)F)cc3)cccn12 | inconclusive: -45.1%
53 | CCC(CNC(=O)c1c(C)nn(-c2ccccc2)c1Cl)c1ccccc1 (stereo not drawn) | active: -81.7%
